{"source": "PubChem BioAssay AID504832", "about": "(National Center for Advancing Translational Sciences (NCATS), 2011)", "note": "The campaign covered roughly 310,000 compounds. About 18,000 (5.8%) were called active. Inconclusive means that the source gave no clear call. Such entries were picked first, then a sample of the others. Calls follow the shape of the dose curve; as a rule, active = well fitted inhibition curve with a large enough effect; inconclusive = small, poorly fitted or top-dose-only effect, or another doubt; inactive = no such curve, though single readings can be large or run the other way. Potencies of inconclusive entries are left out as doubtful fits. % is scaled to controls: 0 for no effect and ±100 for the full control effect; potency is read from the fitted curve at half-maximal effect; tags tell the direction and shape of the fitted curve.", "data": [{"assay": "Primary qHTS for delayed death inhibitors of the malarial parasite plastid, 48 hour incubation", "conditions": "P. falciparum luciferase growth in erythrocytes; series mostly up to 28.7 µM; activity change, negative = inhibition: at the top concentration", "in_short": "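Parasite viability was followed by luminescence of a genomically integrated firefly luciferase. Cultures held 0.1% parasitemia at 2% hematocrit (final), incubated under 5% CO2 at 37 C.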", "values": [{"molecule": "CCCCC/C=C/C1=CC(=O)C[C@H](c2ccc(OC)cc2)C1", "Potency": "inconclusive [inhibitor, single point]"}, {"molecule": "CCOc1ccccc1/C=N/NC(=O)Cc1csc(Nc2cccc(C(F)(F)F)c2)n1", "Potency": "inconclusive [inhibitor, single point]"}, {"molecule": "O=S(=O)(NCCCN1CCOCC1)c1ccc2c(c1)OCCO2", "activity change, negative = inhibition": "inactive: 17.8%"}, {"molecule": "CCOc1ccc(NC(=O)C(C)Oc2ccccc2C(=O)Nc2ccc(C)c(Cl)c2)cc1", "note": "(stereo not given)", "Potency": "inconclusive [inhibitor, single point]"}, {"molecule": "CCN1CCN(S(=O)(=O)c2ccc(Cl)c(C(=O)N(C)Cc3cccs3)c2)CC1", "Potency": "inconclusive [inhibitor, partial curve, poor fit]"}, {"molecule": "Cc1cc(C)cc(NC(=S)NC2CC3CCCC(C2)N3CC(C)C)c1", "note": "(stereo not given)", "Potency": "inconclusive [inhibitor, partial curve, poor fit]"}, {"molecule": "CCOc1ccccc1N1CCN(C(=O)c2cc(C)oc2C)CC1", "Potency": "inconclusive [inhibitor, single point]"}, {"molecule": "CCc1n(CC(O)COC2CCCCC2)c2ccccc2[n+]1C", "note": "(stereo not given)", "Potency": "active: 2.62 µM"}, {"molecule": "O=C(O)C1CCN(S(=O)(=O)Cc2ccccc2)CC1", "activity change, negative = inhibition": "inactive: 27.1%"}, {"molecule": "COc1cc(C(=O)OCC(=O)N(C)Cc2ccccc2)cc(OC)c1OC", "Potency": "inconclusive [inhibitor, single point]"}, {"molecule": "COc1cc(C(C)=O)ccc1OC(C)C(=O)Nc1ccc(S(=O)(=O)N2CCCC2)cc1", "note": "(stereo not given)", "activity change, negative = inhibition": "inactive: -18.1%"}, {"molecule": "NC(=S)NNc1ccc(Cl)c(Cl)c1", "activity change, negative = inhibition": "inactive: 50.5%"}, {"molecule": "O=C(Nc1ccc2c(c1)OCO2)C1CCCN(S(=O)(=O)Cc2ccccc2)C1", "note": "(stereo not given)", "activity change, negative = inhibition": "inactive: -3.94%"}, {"molecule": "COc1cccc(C(C(=O)NC2CCCC2)N(C(=O)c2ccco2)c2ccc(-n3cnnn3)c(C)c2)c1OC", "note": "(stereo not given)", "Potency": "active: 9.28 µM"}, {"molecule": "Cc1nc2nc(SCC(=O)c3cccc([N+](=O)[O-])c3)[nH]c2cc1Br", "Potency": "inconclusive [inhibitor, single point]"}, {"molecule": "CCOC(=O)COc1ccsc1C(=O)OC", "activity change, negative = inhibition": "inactive: 5.61%"}, {"molecule": "O=C(COc1ccc(Br)cc1CO)Nc1ccc(S(=O)(=O)N2CCCC2)cc1", "Potency": "active: 9.28 µM"}, {"molecule": "O=C1CS/C(=N/N=C/c2ccc(OS(=O)(=O)c3ccccc3)cc2)N1", "activity change, negative = inhibition": "inactive: -5.85%"}, {"molecule": "O=C(COC(=O)CNC(=O)c1ccccc1)NCCNC(=O)COC(=O)CNC(=O)c1ccccc1", "Potency": "inconclusive [inhibitor, partial curve, poor fit]"}, {"molecule": "Cn1c(SCC(=O)Nc2ccccc2[N+](=O)[O-])nnc1C(F)(F)F", "Potency": "inconclusive [inhibitor, full curve, poor fit]"}, {"molecule": "COc1ccc(C2C(C(=O)Nc3ccc4c(c3)OCCO4)c3ccccc3C(=O)N2C)cc1", "note": "(stereo not given)", "Potency": "active: 5.22 µM"}, {"molecule": "COc1ccc(/C=C/C(=O)Oc2cccc(/C=N/NC(=O)COc3c(C)cccc3C)c2)cc1", "activity change, negative = inhibition": "inactive: 23%"}, {"molecule": "COc1ccccc1C(CNC(=O)c1cccc(S(=O)(=O)Nc2ccc(F)cc2)c1)N(C)C", "note": "(stereo not given)", "Potency": "active: 13.1 µM"}, {"molecule": "Cc1cc(NC(=O)c2cc(-c3ccccc3C)nc3ccccc23)no1", "Potency": "inconclusive [inhibitor, single point]"}, {"molecule": "Cn1c(COc2ccccc2)nnc1SCC(=O)Nc1ccc(N2CCOCC2)cc1", "Potency": "inconclusive [inhibitor, partial curve, poor fit]"}, {"molecule": "Cc1ccc(OCCOC(=O)C2CCN(S(=O)(=O)c3ccc(C)c(C)c3)CC2)cc1", "Potency": "inconclusive [inhibitor, single point]"}, {"molecule": "COc1cc(-c2nc3cnccn3c2Nc2ccc3c(c2)OCCO3)ccc1O", "Potency": "inconclusive [inhibitor, single point]"}, {"molecule": "COc1ccc2nc(C)cc(Nc3ccc(N4CCN(C)CC4)cc3)c2c1", "activity change, negative = inhibition": "inactive: -0.165% [at 0.00184 µM]"}, {"molecule": "Cc1cc(Nc2ccc(N(C)C)cc2)n2ncnc2n1", "Potency": "active: 2.33 µM"}, {"molecule": "CC(C)CC(=O)Nc1sc2c(c1C#N)CC(C)(C)NC2(C)C", "activity change, negative = inhibition": "inactive: 0%"}, {"molecule": "COC(=O)[C@]1(CC(C)C)N[C@H](c2ccc(-c3ccc(F)cc3)c(OC)c2)[C@@H]2C(=O)N(C)C(=O)[C@@H]21", "Potency": "active: 7.38 µM"}, {"molecule": "Cc1ccc(C(=O)NCCCNC(=O)c2ccccc2C)cn1", "activity change, negative = inhibition": "inactive: 9.31%"}, {"molecule": "CC(C)N(Cc1ccccc1)C(=O)COC(=O)C1CCN(c2ccc(C(F)(F)F)cn2)CC1", "activity change, negative = inhibition": "inactive: 0.312%"}, {"molecule": "CCOc1cc(C(=O)Nc2ccc(C(=O)NCCN(CC)CC)cc2)ccc1OCC(=O)N1CCOCC1", "Potency": "inconclusive [inhibitor, single point]"}, {"molecule": "CCC(=O)N(Cc1cc2c(C)cc(C)cc2[nH]c1=O)C1CCCCC1", "Potency": "inconclusive [inhibitor, partial curve, poor fit]"}, {"molecule": "CS(=O)(=O)N(CC(=O)N1CCC(C(N)=O)CC1)Cc1ccc(Cl)c(Cl)c1", "activity change, negative = inhibition": "inactive: 82%"}, {"molecule": "O=C(Cn1cnc2c(NC(=O)OCc3ccccc3)ncnc21)NCCN1CCOCC1", "activity change, negative = inhibition": "inactive: 22.6%"}, {"molecule": "CC(C)S(=O)(=O)c1csc(NC(=O)Nc2ccc(Cl)cc2)c1Cl", "Potency": "active: 5.22 µM"}, {"molecule": "O=C(NNC(=O)c1cccc(S(=O)(=O)Nc2ccc(Cl)cc2)c1)c1ccc(=O)[nH]c1", "Potency": "inconclusive [inhibitor, single point]"}, {"molecule": "Nc1nn(-c2ccccc2)nc1C(=O)OCc1ccccc1F", "activity change, negative = inhibition": "inactive: 17.2%"}, {"molecule": "COC(=O)C1=NN(c2ccccc2)C2(S1)S/C(=C\\c1ccccc1)C(=O)N2c1ccccc1", "note": "(stereo not given)", "Potency": "active: 13.1 µM"}, {"molecule": "COc1ccc(N=Nc2cnc(C)nc2-c2ccccc2)cc1", "Potency": "inconclusive [inhibitor, single point]"}, {"molecule": "COc1ccc(N(CC(=O)N2CCN(c3ccccc3F)CC2)S(=O)(=O)c2ccc(C)cc2)cc1", "Potency": "inconclusive [inhibitor, single point]"}, {"molecule": "CCN1CCN(c2ccc(S(=O)(=O)N3CCOCC3)cc2NC(=O)c2ccc(Cl)cc2Cl)CC1", "Potency": "active: 13.1 µM"}, {"molecule": "COc1ccc2nc(SCC(=O)N3CCCCCC3)c(C#N)cc2c1", "Potency": "inconclusive [inhibitor, partial curve]"}, {"molecule": "CCc1[nH]nc(C(=O)N2CCCC(Nc3ccc(C(C)C)cc3)C2)c1C", "note": "(stereo not given)", "activity change, negative = inhibition": "inactive: 30.7%"}, {"molecule": "O=C(CCN1C(=O)/C(=C/c2ccco2)SC1=S)Nc1ccc(C(=O)O)c(O)c1", "activity change, negative = inhibition": "inactive: 1.16% [at 0.00184 µM]"}, {"molecule": "COCCn1nnnc1C(c1ccc2ncccc2c1)N1CCN(c2ccccc2F)CC1", "note": "(stereo not given)", "activity change, negative = inhibition": "inactive: -10.7%"}, {"molecule": "Cc1ccc(C)c(NC(=O)CCN2CCN(c3ccccc3F)CC2)c1", "Potency": "inconclusive [inhibitor, partial curve, poor fit]"}, {"molecule": "CCc1ccc(CN2C(=O)c3ccccc3C2C(=O)NCc2cccnc2)cc1", "note": "(stereo not given)", "Potency": "inconclusive [inhibitor, single point]"}, {"molecule": "O=C(Nc1cccnc1)Nc1cc(Cl)cc(Cl)c1", "Potency": "inconclusive [inhibitor, full curve, poor fit]"}, {"molecule": "N#CCCn1c(SCC(=O)N2CCN(S(=O)(=O)c3ccccc3)CC2)nc2ccccc21", "Potency": "inconclusive [inhibitor, partial curve, poor fit]"}, {"molecule": "CC1CCCC(C)N1CCNC(=O)C1CCN(S(=O)(=O)N2CCCCC2)CC1", "note": "(stereo not given)", "Potency": "inconclusive [inhibitor, partial curve, poor fit]"}, {"molecule": "CC(C)(C)OC(=O)N/N=C/c1cc(N=Nc2ccccc2)ccc1O", "Potency": "inconclusive [inhibitor, single point]"}, {"molecule": "Cc1c(C#N)c2ccccc2n1CC(=O)NCc1ccccc1", "Potency": "inconclusive [inhibitor, single point]"}, {"molecule": "CNc1snc(C)c1C(=O)OC(C)C(=O)c1ccc(F)cc1", "note": "(stereo not given)", "Potency": "inconclusive [inhibitor, single point]"}, {"molecule": "CCOc1cc(N2CCOCC2)c(OCC)cc1NC(=O)C1=NN(c2cccc(C)c2)C(=O)CC1", "activity change, negative = inhibition": "inactive: 10.1%"}, {"molecule": "O=C(CCCc1nc2ccccc2s1)N1CCN(S(=O)(=O)c2cccs2)CC1", "Potency": "inconclusive [inhibitor, partial curve, poor fit]"}, {"molecule": "CCCCCc1ccc(-c2ccc(OCC)cc2)nc1", "activity change, negative = inhibition": "inactive: 78.2%"}, {"molecule": "O=[N+]([O-])c1ccc(C2CCCC/C2=N/OCc2ccccc2F)c([N+](=O)[O-])c1", "note": "(stereo not given)", "Potency": "inconclusive [inhibitor, partial curve]"}, {"molecule": "Cc1ccc(NC(=O)N2CCCC(C(=O)O)C2)cc1", "note": "(stereo not given)", "activity change, negative = inhibition": "inactive: 87.1%"}, {"molecule": "CCc1nc(N)c(C#N)c(-c2cccc3ccccc23)c1C", "Potency": "inconclusive [inhibitor, partial curve, poor fit]"}, {"molecule": "Cc1cc2occ(CC(=O)Nc3nccs3)c2cc1C(C)C", "Potency": "inconclusive [inhibitor, single point]"}, {"molecule": "Cc1ccc(Sc2ccc(/C=N/O)cc2[N+](=O)[O-])cc1", "Potency": "inconclusive [inhibitor, full curve, poor fit]"}, {"molecule": "Cc1ccc(NC(=O)CN(C)S(=O)(=O)c2cccc3cccnc23)cc1C", "activity change, negative = inhibition": "inactive: 14.5%"}, {"molecule": "CN1CCc2c(OCC(=O)N3CCC(Cc4ccccc4)CC3)cccc2C1=O", "Potency": "inconclusive [inhibitor, partial curve, poor fit]"}, {"molecule": "COc1cc(/C=N/N2CCN(C3c4ccccc4-c4ccccc43)CC2)ccc1O", "Potency": "inconclusive [inhibitor, single point]"}, {"molecule": "CC1CCCCC1NCC(=O)Nc1ccccc1-c1ccccc1", "note": "(stereo not given)", "Potency": "inconclusive [inhibitor, partial curve, poor fit]"}, {"molecule": "CCOC(=O)c1ccc(NC(=O)CCc2nc(-c3ccc(Cl)cc3)no2)cc1", "Potency": "inconclusive [inhibitor, single point]"}, {"molecule": "CCOc1ccc(C(=O)NC2=NCCS2)cc1", "activity change, negative = inhibition": "inactive: 78.5%"}]}]}
